According to the supplement of paper PMC10126150:
Sequences with one replicate were seen in a single cluster, so their values are uncertain.

System: ATP
Assay: switch fluorescence ratio, 500 uM ATP over buffer (Cy3 cluster intensity, sum of 5 cycles each) (fold (ratio)); higher = stronger signal-on switching upon ATP binding; sequences stand for … in TCGTCGGCAGCGTCAGATGTGTATAAGAGACAGTTTTTTTTTTTTTTTTTTTTTTTTT…TC
Settings: aptamer strand: ATP DNA aptamer (quencher-CACCTGGGGGAGTATTGCGGAGGAAGG + anchor), 100 nM annealed; ATP concentration: 500 uM; one replicate
Procedure, shortened: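 Exposure to 500 uM ATP lasted 15 min at 22 °C before imaging, and a selection-buffer image was taken beforehand, for Cy3-labelled switching-strand clusters on a modified Illumina MiSeq flow-cell annealed to 100 nM quencher-labelled ATP aptamer. Five buffer/ATP cycles were run with NaOH stripping and re-annealing between them. The fluorescence ratio per cluster is summed target-cycle over summed buffer-cycle Cy3 intensity, averaged per switch-domain sequence. Clusters outside 100-1000 RFU were excluded.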

Sequence	switch fluorescence ratio
AGATAGGCGC	1.03
GTTGCAATCA	1.03
CGCAGCTGTA	1.19
GGATGAGATG	1.01
ATGCGCCTCT	1.05
GTATAGTGCC	0.97
GGGGGCGCGC	0.977
CGGTCCTTGC	1.22
TTTCCCTTGT	1.11
GTAGGGCGTC	1.02
ATAATTCCGG	0.961
CGGAAGCATA	2.95
TAAGTTATG	1.01
GCGCCCCTTC	1.09
CGTTTTTGT	1.05
TATGTTTTCC	1
TGATAGTTCA	1.01
CAGTCGTCGG	1.01
GCCCTTTTGG	0.961
AAATATTCAT	0.96
TCAAGCTTCA	1.27
TATCGTTTTG	1.01
GGCCCGAGGA	1.05
TATCGCGGTA	0.983
AACTATCAGA	1.01

Sequence	switch fluorescence ratio
GGTCTGTAAC	1.02
AAATTGAACA	1.26
ACATTGTTTG	0.994
GATGTGAGGT	0.966
GATTCGGGTC	0.953
GATTTTATCC	0.986
GCCCTCTTGA	1.04
CAAATATTGT	0.948
TCCCATCTCT	1.04
GCGAAGGTTA	0.991
TCTCTGATTG	1.02
GTTTTGTGTG	0.96
ACGTTACCGC	1.55
TTTAGCTCT	0.975
ATATTGCCGA	1.05
TGGCTCGCCA	1.22
ATTCAGTCAG	0.996
GGCTAGGGAT	0.971
TGTTTCGCGG	0.991
CATCAGTTGG	1
TTGTATTGCT	1.01
TACGCGGGTC	1
TTTCCGTTCT	1.05
AGCAGGAATC	1.12
CCAAGCGACC	2.58

Sequence	switch fluorescence ratio
GCTAACACGC	1.02
ACGCGTATCG	1.05
GATGCGTCGT	0.998
TCGCGGAGTA	0.971
GAATTCAAAT	1.01
CTAACTTTC	1.09
CTCAGATACG	1.11
CTGTCCTAGC	0.993
ATCACGTCCA	0.986
TTCTTCGGTA	1
AAAATACCCG	1.07
TTACCCAGGC	1.29
ACAGGAATAG	1.19
GCTGGAATCG	0.989
GATGATAACA	0.99
TCTTCAAGGA	0.966
AATTGAAGCA	1.06
TCAGGTCGTA	0.967
CGTTAATATT	0.988
TAACTGTTAG	0.999
TCATATAAAT	0.961
GGGCTGATTT	1
AGCTAACTTA	0.986
TATGACTTTT	0.99
ATTAGAGGT	0.956

Sequence	switch fluorescence ratio
CACTTGGCGG	0.996
CGCGATACAA	4.72
GGCGGCAAGG	1.01
AACCTGGTAG	1.06
AAGGCTAGAA	1.01
CCTCAATGGG	1.1
CGGGTGAAGC	1
ACTACCTAAT	1.02
ACCGCCTGAC	3.56
GAAGCTCATT	0.975
GCATTTGCCC	1
AACTAGACAG	1.01
AATGTGCGG	0.954
GTGAGCGCAC	1.01
GTAACCTGTA	1.28
GGTAAGAACG	1.02
AGTTTGTCCT	1.03
AAGCAGGTAT	0.998
CTGGGGCTTG	0.985
GCGGCAAAAC	1.07
GATGGCAGTT	1.01
AGGGCCATCT	1.06
GAGAGGGGCC	0.965
GGAAGAACCA	1.07
GATACAAATA	0.979

Sequence	switch fluorescence ratio
AACAGGTCGC	1.01
AAGTAACTGA	1.08
GACTTACCCA	1.16
ATTTCCGGTT	0.983
CGTGGATGGG	0.981
CATCGAGGCG	1.01
TAAGAGGTTG	0.933
TAGTGGCCAA	0.988
GCCCGCCCAG	1.19
GTAGTGACGG	1
GGTACGGCTC	0.989
CGTGGCTAGC	0.975
TTTGTGCTG	1.02
CTAGCTCATA	1.01
AGAGGTGATG	0.969
CGGCCTGGCC	1
CGGATGAAAT	1.04
AGGATCGCTC	1.02
AGGCATATGA	0.962
TTGTTCGAAT	0.987
GGCTTAGGGT	0.983
CATTCCCACG	1.23
AATAGCATTT	0.958
ACAAGTTCCC	0.992
CGTAGACTAG	1.01

Sequence	switch fluorescence ratio
TTTAGGAACA	1
TCCTGCAGAG	1.65
GTAGACCCGT	0.99
CGTTAGATTC	1.03
CGGGTTCAGG	1.01
GGTTAAAATA	0.973
ACCACACCGG	1.2
AGGGTTAGAC	1.01
ACGGGACCCG	0.968
GAAACAACAG	1.05
TCCAGGGCCA	1.03
TGATGACTTT	1.18
CGAGATGAAT	0.977
GCACGTTTAG	1.01
GACTCCTT	0.999
AATTCTGACG	1.02
CACGTTGGGA	0.968
ATTAGAGACA	0.999
GAGTGGCGCC	0.983
TAGCGTTCGT	0.961
TAACTGGGCC	1.07
TTGACGGCAT	0.998
ACGGTTATGG	1.03
GCCGAATTTA	1.01
TTACATTGCA	1.02

Sequence	switch fluorescence ratio
GAACCGTAT	1.19
CTCTTCACAT	1.09
TAAATGTTCA	0.987
AGGGCTTACC	1.06
ATTCCTCCAA	2.39
ATAGCCTTTA	1
GTTGGTAACA	0.947
ATCCGGAAAG	1.31
TATTCGGATC	0.976
TTTTACGAGG	1.01
AGCAACAGGT	1.07
CAGGATGCTT	0.984
TTCAGCCAAA	0.993
ACGGGATAGT	1.09
TAGAACCCT	1.05
ATCAGTTTAT	1.01
CAGAGTCCGT	1.03
CACGTACTGC	1.58
CAAAAAGTAC	1.05
CGGCTGTGGG	0.992
CTAACTGTT	0.938
TGCATTAGAA	0.99
TGATGTAGTA	1
AGGCGTACTA	1.04
CGTCAGTGGG	0.986

Sequence	switch fluorescence ratio
TAGAGTGCGG	0.916
CGACGGGACA	1.13
AAGTTACACA	0.941
TAATAAAAAG	0.987
GATCCAGCGC	1
ACCTGAAATG	0.997
TAAGTGTCCA	0.99
ACGCCGATCT	1.08
CCGGGTTCGG	0.988
GCTTAAGATG	0.958
GTTACCAGTG	1.1
GCTGATCGGG	0.994
CCTGTTCCAG	0.991
GGAACCCGCT	3.22
GACCTAGTAC	1.25
TTTATTGAAG	1.01
TACCTGGCCC	1.08
GATCTAATCG	1.01
ACGAGGTGCG	0.942
GCATCCCAAT	1.87
GTTGGCCCAA	1.04
ATAATATGCG	1.05
TGTTGTCGT	0.918
AAAGGAAAGA	1.08
GACATACCCT	1.4
